# This is one part of the list.
# B1: chr1:184378663:184378664:+_ENSMUSG00000026510_ENSMUST00000117245|mus_mus|FALSE|FALSE (ssRNA)
# RNA: GGGAGUUCUACAGUCCGACGAUCCAAGAAAGGCAGUAAUUUUGUUGGGCUGAGUGGUCGAGGAAUCCUUUCGUUUUCAUGGCUCUCAUGAACUGAAGAAACGGUCUCUGUCUCGGGCUCCGGACUGCCAGGCUUCCCCUGGCUCAACAGAGGAUUGAGCAUCA
# B2: chr7:141441981:141441982:+_ENSG00000106028_ENST00000265304|hu_mus|hu_hu_hu_mus_False|8_78 (ssRNA)
# RNA: GGGAGUUCUACAGUCCGACGAUCCUCAUGUCUUACAAACUGACGAAAUACCUGUAAUACAGGUCUUCGAAACAUGGCUUCUGUUUUUCUUACAACCUAAUCUUUAGGCUUUUCCUAAAGGAAAGAAUAACCCGAGCAAAAUGACAACAGAGGAUUGAGCAUCA
# B3: 120770645_120770765_141_5pUTR_ENSMUSG00000043207_ENSMUST00000058754|mouse|control|control (ssRNA)
# RNA: GGGAGUUCUACAGUCCGACGAUCCUCAGCGACACGCGUCCCUCGGAGAGUGCCAGCGGUGUCACAACAAUACGGGUCCCUUCCGAGGGCUUCUUCAGACGCCCAUUCCCUCAGCUUUGCCAGAAGUGUCACAAAGACACGAUUCAACAGAGGAUUGAGCAUCA
# B4: chr2:202488911:202488912:-_ENSG00000155755_ENST00000286196|hu_mus|hu_hu_hu_mus_False|58_58 (ssRNA)
# RNA: GGGAGUUCUACAGUCCGACGAUCAUUGAAACAUUUUUCAUAAUCUCCAGUAGCAUUUCAGCAUUAUGUAACAAAAGAUCUAUUACAAAUACAUGUAUCUUAUAAAAAUACACUUAAAAACACGAGUGGGGAGCGCAGGCGCCACAACAGAGGAUUGAGCAUCA
# B5: chr17:71578653:71578654:+_ENSMUSG00000024052_ENSMUST00000129635|mus_hu|FALSE|FALSE (ssRNA)
# RNA: GGGAGUUCUACAGUCCGACGAUCAGAUCCUCGUGCUGCCUGGGCCCCCUUGUCAUCAUCGGAGCUCACGCCUACAUCACAUGUGUCUUCUGCAGCAGCAGAUGCGGCCUGCUCUUCCUUCUUACUGUCCUGUUUGUAUUUCUUCAACAGAGGAUUGAGCAUCA
# B6: chr2:42509997:42509998:+_ENSG00000143924_ENST00000318522|hu_mus|hu_hu_hu_mus_True|78_88 (ssRNA)
# RNA: GGGAGUUCUACAGUCCGACGAUCUCGCUGAGUCCUCUCCUCAUAAUUAAAUAGUACUACUACUGAUGCGAUAAAAUAAACUAUCUCCCCUGUGGGAAGCAGGUAUACAUUCGCUCUACAGUCCUUUCCUCGAUAACCGUAUACCAACAGAGGAUUGAGCAUCA
# B7: chr10:73576327:73576328:-_ENSG00000197746_ENST00000394936|hu_mus|motif|central (ssRNA)
# RNA: GGGAGUUCUACAGUCCGACGAUCCCCACUGCCAGGCAGACGCUUCACUCAUGAGGUGAACAGGCAGGUCAACAAGAGCGGCAGGUGGUGGGAAAGCCGUGCAGGACCCCAAACAGCCAGGCAGAGGCCACACGGUCAAGGGCCCAACAGAGGAUUGAGCAUCA
# B8: chr11:86893775:86893776:-_ENSMUSG00000020495_ENSMUST00000020801|mus_hu|FALSE|FALSE (ssRNA)
# RNA: GGGAGUUCUACAGUCCGACGAUCCCUCAUAAGUUGAGCAUAAUGAGGUUUCAGCCCUCUACCUUGAGAGGAUGACAGAAUAUAUAAGGGCAUGUCACUAUUUAGGGCUUUUAAAGCUGAUUCCUUUGGCCCACUUCCCAUUACCAACAGAGGAUUGAGCAUCA
# B9: 90660614_90660734_1853_3pUTR_ENSG00000112182_ENST00000537989|human|control|control (ssRNA)
# RNA: GGGAGUUCUACAGUCCGACGAUCUGGACACCUCCUUCUGGCCCACGUGGGGCUGUCCAUAAUUCCCUGUGAAAGGGGUGUAGUCAGUUUUAAGGUCACCCUGAGUGAUCCCCUUGUCAAAAGGGCAGGCUGGACUCCUGGCAACAACAGAGGAUUGAGCAUCA
# B10: chr3:32568357:32568358:-_ENSG00000144635_ENST00000273130|hu_mus|FALSE|FALSE (ssRNA)
# RNA: GGGAGUUCUACAGUCCGACGAUCCGUAGGAGAUGUAGGUGUUGUAGGAGAAACAGAAGCAGGUUUCCGUGUGAUUCUGUCUAGCUCUGCGUGAACAUCUGAAAGCACAGGUUUCUGGCCUGACUUUUUGGCGGACGGUGGCAACAACAGAGGAUUGAGCAUCA
# B11: chr5:21252845:21252846:+_ENSMUSG00000029017_ENSMUST00000030882|mus_mus|motif|central (ssRNA)
# RNA: GGGAGUUCUACAGUCCGACGAUCGUUUGCGACCAUGAGACAGAUCGUGUCUGGAUGGGCCCAACCAACUGCUUCAACAGCGGUUGCAAGGUGCGCCAAUGGCAUCUUGUCAUCCCUCACCCGAAUCUCACUUCCAGUGAACUUCAACAGAGGAUUGAGCAUCA
# B12: chr1:39494564:39494565:+_ENSG00000168653_ENST00000372967|hu_mus|FALSE|FALSE (ssRNA)
# RNA: GGGAGUUCUACAGUCCGACGAUCAUGCAUUCGCCUCAUCGUUUUGUACCGAAGCAAGCACUCUUCGAAGUCAUCGAACUCUAUCUUGCACUCCUUUUUCGCCCGGGUCCCACCGAUCCCGUGUGCACACUCUAUCCACUCUUUCAACAGAGGAUUGAGCAUCA
# B13: chrX:160370135:160370136:+_ENSMUSG00000031367_ENSMUST00000069041|mus_hu|FALSE|FALSE (ssRNA)
# RNA: GGGAGUUCUACAGUCCGACGAUCAAUGAAGCGGCUUAGCAAAACAGUAAUACUGACAAGACAUCAUCUUACACCAUGAGCUAACAUGGACAUGAAGGGAGUGACCAUCUACAGUGUGUGAAAUGCCACAAGAAGUCAUCAACACAACAGAGGAUUGAGCAUCA
# B14: chr2:32089778:32089779:+_ENSMUSG00000039262_ENSMUST00000036691|mus_mus|motif|central (ssRNA)
# RNA: GGGAGUUCUACAGUCCGACGAUCCUAAACAAGCUGCACAGUACACCUUUAGCAUCGUCUGCCCUUUCAAAUAGCUGGUCGGAGUGAAAGACAGAGGGAAGGCCAAAAGAAAAGCAAAGGAAAACAAAAGGACCCUCAAAAAGACAACAGAGGAUUGAGCAUCA
# B15: chr10:114190419:114190420:-_ENSG00000023041_ENST00000369405|hu_mus|FALSE|FALSE (ssRNA)
# RNA: GGGAGUUCUACAGUCCGACGAUCGACGGCAGGAAUUCAAAGGCAUAUGCAGAAUGGCUUCUGUUUCAAAACGGUAAUAAACAUUUCUGAAGUCAUGGCACUAGGGCAUCUUUGAGGAAAAGAAUACCUUAAGCAGAGUAGGCUCAACAGAGGAUUGAGCAUCA
# B16: 14004349_14004469_1688_3pUTR_ENSMUSG00000024420_ENSMUST00000025288|mouse|control|control (ssRNA)
# RNA: GGGAGUUCUACAGUCCGACGAUCGGAUUGGCAAACCCAUGAGAACAUCGGAUGUGCUCCUGAAGGGUGUUGAGGUCAUUGACAACUUCGGAACAGAAGUUGCACUGGUAAACAAUGGCAGGCAUGGCCGAAACAAUCAGGCCGCAACAGAGGAUUGAGCAUCA
# B17: chrX:98862621:98862622:+_ENSMUSG00000034160_ENSMUST00000044475|mus_hu|mus_mus_mus_hu_False|58_68 (ssRNA)
# RNA: GGGAGUUCUACAGUCCGACGAUCCUGCAUCUCCUUUAGAGUGUUUCCCAUAUUAGAGUAGGCAUCAGCAAAUGUAGGACUAAUUCGAAUAGCCUCCUUAUAAUGCAUCAGAGCUUCCUGCAGUUUUCCCUGCUGCUGCAGUACCAACAGAGGAUUGAGCAUCA
# B18: chr1:60041781:60041782:+_ENSMUSG00000041040_ENSMUST00000036540|mus_hu|mus_mus_mus_hu_False|78_78 (ssRNA)
# RNA: GGGAGUUCUACAGUCCGACGAUCAAGUUUACAAUAGUAAAGUAAAUGCAGUAGUGGAAUGGCAAGUUUUAUUUUCCUUCACAAAAGAAAAUCUUUAUAACCCAGUCCUAGUCUUGGACAUAGUGAAAGCUAUAAAUUCUGACUCAACAGAGGAUUGAGCAUCA
# B19: 88103482_88103602_2046_3pUTR_ENSG00000163320_ENST00000309534|human|control|control (ssRNA)
# RNA: GGGAGUUCUACAGUCCGACGAUCAGAUCAUUUCCUGAACAUGGCUGAUCUUUAAGAGAACAAUUUCCUCACCCAAAGUUAUGCAGGAUACUGCCAGAUCUCCAAUACAAAAAACCUGCCAGAAUUUCUAGACAAUUGUUUACCCAACAGAGGAUUGAGCAUCA
# B20: chr4:25749455:25749456:-_ENSG00000091490_ENST00000264868|hu_hu|hu_hu_hu_mus_False|38_48 (ssRNA)
# RNA: GGGAGUUCUACAGUCCGACGAUCGCACUAUGACCUCUAGAAAAAUCCACAGGGGGAAAAAAUGUAAACCAAUGUACAAUGUUAUCGCCCUCCCUGCAUUUCCAGGCUUUGUCUCAAGGCUCCUUCUAGCUGCUGGAUUUGGGACAACAGAGGAUUGAGCAUCA
# B21: chr8:117878989:117878990:-_ENSG00000164754_ENST00000297338|hu_hu|hu_hu_hu_mus_True|28_28 (ssRNA)
# RNA: GGGAGUUCUACAGUCCGACGAUCCCAGAGGCCCUCGUUUACUGAGGACAAAAUGUGCGUAGAACAUUUUUCUUAUUUGCUAUGAAAUAAGAAGAAACCUGGAUCUCCCGCUGGGAGCGGGAGGGGUGGGUGGCCCGGGGAGGGCAACAGAGGAUUGAGCAUCA
# B22: chr10:1038518:1038519:+_ENSG00000107937_ENST00000545048|hu_hu|hu_hu_hu_mus_False|28_108 (ssRNA)
# RNA: GGGAGUUCUACAGUCCGACGAUCCAGUCUAUCAUGGUAAUUCUGUUGAGUAAAUUUGACUUUUCUCAUAUAAAAAUGUCGAAUCCGAUGAAUUUGAUAAUGUUUAUGAAUAACGGUUGGAGUCUUUCGUUGAGUCUUGGAUAACAACAGAGGAUUGAGCAUCA
# Molecular target: T1, UNK ZnF1-3 (human, UniProt Q9C0B0 31-174)
# T1 sequence: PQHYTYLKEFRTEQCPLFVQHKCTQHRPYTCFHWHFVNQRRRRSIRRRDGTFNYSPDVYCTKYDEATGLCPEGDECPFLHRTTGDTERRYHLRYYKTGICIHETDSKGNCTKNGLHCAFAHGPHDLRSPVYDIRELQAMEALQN
# Assay: nsRBNS (natural sequence RNA bind-n-seq); RBNS binding buffer (assumed for nsRBNS): 25 mM Tris pH 7.5, 150 mM KCl, 3 mM MgCl2, 0.01% Triton X-100, 500 ug/ml BSA, 20 U/ml SUPERase-In, 4 C; UNK is unkempt and MSI1 is Musashi-1; names of the RNAs are library labels; protein concentration not given here; high values mean tight binding
row,Binder,binding signal [enrichment R]
1,B1,0.811
2,B2,0.724
3,B3,0.703
4,B4,0.917
5,B5,0.543
6,B6,1.41
7,B7,1.44
8,B8,0.99
9,B9,0.857
10,B10,0.716
11,B11,0.401
12,B12,0.652
13,B13,1.14
14,B14,2.61
15,B15,1.86
16,B16,1.44
17,B17,1.1
18,B18,0.648
19,B19,1.25
20,B20,1.23
21,B21,1.04
22,B22,0.607

# Reference: paper PMC12136788
